ChEMBL document CHEMBL4888484, “Replenishing the malaria drug discovery pipeline: Screening and hit evaluation of the MMV Hit Generation Library 1 (HGL1) against asexual blood stage Plasmodium falciparum ,using a nano luciferase reporter read-out” (2022)
Hit rate of the full screen: of about 150,000 compounds, about 540 (0.36%) showed an effect of 50% or more. The list shows a part of the results.

What follows are compounds tested on Plasmodium falciparum (assay: Primary screen in NF54 nanoGlo assay, in single point, at 2uM, 72h; a lower Z score goes with more inhibition). Details: timepoint 72 hour.
Assay type: functional, Erythrocyte

Row | SMILES | % Inhibition [%] | Z score
1 | COCc1ccc(C(=O)N(CC(C)C)CC2CCN(Cc3ccccc3OC)CC2)s1 | -9 | 1.36
2 | COc1cnc(NC(=O)N(C)Cc2c(C)cccc2C)s1 | -13 | 1.38
3 | Cn1c(=O)c2c(nc3n2CC(=O)N3c2ccc(F)cc2F)n(C)c1=O | -10 | 1.22
4 | CCN1CCO[C@@H](CNCc2c(C)nn(CC(C)C)c2Cl)C1 | -5 | 0.77
5 | C[C@H](OC(=O)c1ccc(N(C)C)cc1)C(N)=O | -2 | 0.28
6 | CC(=O)NCCn1cnc(-c2ccccc2)c1-c1cccn1-c1cccnc1 | -2 | 0.33
7 | Cc1ccc2cc1Oc1cccc(c1)CO[C@H]1CN(C(=O)CN(C)C)C[C@@H]1NC(=O)CN(C)C2=O | -6 | 1.19
8 | O=C(Nc1nc(C2CC2)cs1)c1cc(Cl)c[nH]1 | 2 | -0.36
9 | CCc1[nH]nc(CCc2ccccc2)c1NC(=O)c1ccc(C(F)(F)F)cc1 | -12 | 1.49
10 | CC(C)(C)CC(=O)N1CCCC[C@H]1C(=O)N1CCOCC1 | 3 | -0.3
11 | Cc1nn(C)c(C)c1CCC(=O)NC[C@@]12CCC[C@H]1N(CC1CCCCC1)C(=O)CC2 | 6 | -0.73
12 | COc1ccc(C(=O)N2CCN(C3CCC3)C[C@H](C)C2)nc1 | 1 | -0.08
13 | CCC(NC(=O)NCc1cnn(CC(F)(F)F)c1)C1CCCCO1 (stereo not drawn) | -14 | 1.63
14 | c1cn(C[C@H]2CCCCN2CCCN2CCCCC2)nn1 | -10 | 1
15 | CN(Cc1ccccc1)C[C@H]1CCCN(CCO)C1 | -11 | 1.81
16 | NC(=O)N[C@H]1CCN(C(=O)CCc2ccccc2N2CCOCC2)C1 | -3 | 0.57
17 | COc1ccc(CCNC(=O)N2C(=O)CCC2=O)cc1OC | -15 | 2.05
18 | O=C(NC1(c2ccc(F)cc2F)CCCCC1)c1cc[nH]c(=O)c1 | -10 | 1.37
19 | CC[C@@H](C(=O)N1CCn2cncc2C1)n1cccn1 | 4 | -0.76
20 | FC(F)(F)c1cc(Oc2ncnc3[nH]ccc23)ccc1Cl | 6 | -1.16
21 | Cc1cccnc1[C@@H](NC(=O)Nc1ccn(CCN(C)C)n1)C(C)C | -7 | 1.37

Row | SMILES | % Inhibition [%] | Z score
22 | COc1ccc(N[C@H]2CC(=O)N(c3cccc(Cl)c3C)C2=O)cc1S(=O)(=O)N1CCOCC1 | -8 | 1.12
23 | CCCN1CCC(c2nnc3n2CCN(C(=O)Nc2cccc(C)c2C)C3)CC1 | -3 | 0.51
24 | COc1ncccc1-c1nc(-c2cccc(NC(=O)c3ccccc3F)c2)no1 | -4 | 0.55
25 | CCCCn1nc(C(=O)N2CCNC(=O)C2)ccc1=O | -7 | 1.16
26 | COC(=O)[C@@]12CCCC[C@@H]1CN(S(=O)(=O)N(C)C)C2 | -5 | 0.78
27 | C[C@H](NC(=O)c1coc(COc2cccc(F)c2)n1)c1nnn[nH]1 | -1 | 0.19
28 | O=C([C@H](O)c1cccnc1)N1CCn2c(cnc2C(F)(F)F)C1 | -3 | 0.47
29 | O=C(CCc1ccccc1)Nc1[nH]nnc1C(=O)N1CCCC1 | -6 | 0.87
30 | COC(=O)CN(CC(=O)OC(C)(C)C)C(=O)COCC1CC1 | -5 | 0.63
31 | COc1ccccc1CN1C(=O)CN(c2ccccc2)C(=O)[C@@H]1c1ccncc1 | -1 | 0.18
32 | COCCOC1CCC(C(=O)Nc2ccc(C)nc2O)CC1 (stereo not drawn) | 2 | -0.19
33 | O=S(=O)(Nc1cccc(-c2nnc3n2CCC3)c1)c1ccc(F)cc1F | -4 | 0.5
34 | C[C@H]1CN(C(=O)COC(=O)c2ccc3c(c2)OCCCO3)CCO1 | 0 | 0.05
35 | CCN(C(=O)c1cc[nH]c(=O)c1)[C@@H](Cc1ccc(F)cc1)C(C)C | -4 | 0.55
36 | COc1cccc(CNC(=O)NCCc2nc3cccnc3n2Cc2ccccc2)c1 | -32 | 2.86
37 | COc1cccc(C(=O)N2CCN(C(=O)CCc3ccccn3)CC2)c1 | 9 | -1.2
38 | Cc1ccc(C(=O)N2CCC[C@@](O)(C(F)(F)F)C2)nc1C | -2 | 0.33
39 | O=C(COC[C@H]1CCCO1)Nc1cc2ccccc2nn1 | -8 | 0.93
40 | C=CCNC(=O)C1CC(c2ccccc2)CN(C(=O)c2ccc(OC)cc2)C1 (stereo not drawn) | -1 | 0.24
41 | CC=C(C)c1nc(C2(S(C)(=O)=O)CC2)no1 | 3 | -0.45
42 | CCc1ccc(OCCN(C)C(=O)c2n[nH]c3c2CCC3)cc1 | -17 | 1.65

Row | SMILES | % Inhibition [%] | Z score
43 | CCc1nc(N2CCC(CNC(=O)[C@H]3CCOC3)CC2)no1 | 2 | -0.38
44 | CCc1ccc(-n2c(=O)[nH]c3c(c2=O)C(CC)(CC)Cc2ccccc2-3)cc1 | 1 | -0.1
45 | COc1cc(=O)n2c(c1C(=O)N(C)Cc1nonc1C)CCN(C(=O)CC1CCCCC1)CC2 | -13 | 1.85
46 | O=S(=O)(c1ccc(F)cc1F)N1CCC[C@@H]1Cc1noc(-c2ccccc2)n1 | -2 | 0.35
47 | Cc1cc(C)c(C(=O)N2CCC[C@H](C(=O)N3CCN(c4cccc(Cl)c4)CC3)C2)[nH]1 | -8 | 1.06
48 | O=C(CN(Cc1ccccc1)[C@@H](CO)C1CC1)Nc1ccnn1C1CCCC1 | 28 | -3.21
49 | Cc1ccc(C(C)NC(C)C(=O)O)cc1F (stereo not drawn) | -11 | 1.41
50 | CC(NC(c1ccc(C2CCCCC2)cc1)C(C)C)c1nc2ccccc2c(=O)[nH]1 (stereo not drawn) | -12 | 1.87
51 | CC(C)(O)CCc1ccc(CN2CCNC(=O)[C@@H]2Cc2ccccc2)cc1 | -3 | 0.42
52 | CCc1nc(NCCN2CCS(=O)(=O)CC2)c2ccsc2n1 | -1 | 0.14
53 | COc1cccc(OC)c1-c1noc([C@H](C)n2nc(C)cc2C)n1 | 12 | -1.58
54 | CCc1nsc(N2CCc3cc(OC)c(OC)cc3C2)n1 | -5 | 0.69
55 | NC(=O)c1cc2c(nc1-c1ccc3c(c1)OCO3)CCC2 | 5 | -0.71
56 | Cn1cc(OCc2cccc(Cl)c2)cn1 | -20 | 2.22
57 | CN(C[C@H]1CCCOC1)C(=O)Nc1scc(C(C)(C)C)c1C#N | -12 | 1.64
58 | CC1(C)CN(c2ccnc(C(=O)NCc3ccc4c(c3)OCO4)c2)CCO1 | 6 | -0.89
59 | CCOC(=O)C(F)(F)C1(O)CCN(c2nc(C)ns2)CC1 | 0 | 0.09
60 | Cn1cccc1C(=O)NCc1ccccn1 | -5 | 0.57
61 | O=C1OCC2(CCN(Cc3cccc4nonc34)CC2)O1 | 0 | -0.09
62 | CCn1ncc2ncn(CC(=O)C(C)(C)C)c(=O)c21 | -5 | 0.75
63 | COc1ccc(Cc2noc([C@@]3(C)CCNC(=O)C3)n2)cc1F | -1 | 0.12

Row | SMILES | % Inhibition [%] | Z score
64 | CC(C)CCC[C@H]1CN(Cc2c[nH]cn2)CCO1 | -4 | 0.61
65 | O=C(Nc1ccc(F)c(Cl)c1)c1sccc1S(=O)(=O)N1CCc2ccccc2C1 | -3 | 0.41
66 | C=CCOC[C@@H](O)CN(CCOC)Cc1cc(OC)cc(OC)c1 | 4 | -0.6
67 | CC(C)Cc1nc([C@@H]2CCCCN2)n(CC(F)(F)F)n1 | -14 | 1.76
68 | O=C(O)C1ON(c2ccccc2)C(c2ccccc2)C1C(=O)Nc1ccc(F)cc1 (stereo not drawn) | 1 | -0.18
69 | O=C(c1c(F)cccc1F)N1CCN(c2ccc(-n3ccnc3)nn2)CC1 | -16 | 3.05
70 | O=C(C1CCN(C2CCN(CCCc3ccccc3)CC2)CC1)N1CCCOCC1 | -3 | 0.41
71 | C[C@H](OC(=O)c1ccc(N2C(=O)c3ccccc3C2=O)cc1)C(=O)N1CCc2ccccc21 | -4 | 0.74
72 | O=C(COc1ccc(Cl)cc1)NC1CCN(Cc2ccccc2)CC1 | -10 | 0.93
73 | FC(F)CN1CCCN(Cc2nc3ccccc3[nH]2)CC1 | 7 | -1.23
74 | CC1CCCC(OC(C)C(=O)N2CC[S+]([O-])C(C)C2C)C1 (stereo not drawn) | -13 | 1.11
75 | c1ccc(-c2nnc(N3C[C@H]4CCN[C@H]4C3)s2)cc1 | -4 | 0.81
76 | COc1ccc(CNC(=O)c2cccn2-c2cccnc2C)cc1OC | -5 | 0.55
77 | CCC(=O)NC[C@@H](O)Cc1ccc(F)cc1F | -5 | 0.5
78 | COc1ccc(C)cc1-n1c([C@H]2CC(=O)N(Cc3ccccc3)C2)n[nH]c1=O | -7 | 1.08
79 | CCc1ccnc(C(=O)N[C@H]2CCC[C@H]2Cn2ccnn2)c1 | -6 | 0.66
80 | COc1ccc(F)cc1CN1CCN(S(=O)(=O)N2CCCCCC2)CC1 | -8 | 0.95
81 | CNC(=O)C1CCN(CC(=O)N2CCCCCCC2)CC1 | 3 | -0.37
82 | CC(C)Oc1cc(-c2ccc(C(=O)N[C@@H](C)Cn3cccn3)cc2)nc(N)n1 | -16 | 3.03
83 | Cc1cc(-c2ccc(S(=O)(=O)NC3CCN(Cc4ccccc4)CC3)c(C)c2)on1 | -9 | 1.45
84 | COCCCN(C[C@@H]1CCCN2CCCC[C@H]12)C(=O)COc1cn(C)c(C)cc1=O | -1 | 0.17
